Experimental findings from publication PMC7881268 are described below.

No constants are given. Whether binding was seen depends on the method and setting. Binding seen in cells or lysates may run through a third protein. Some binding calls cover weakened binding; strength is not graded here. Where a sequence is shown, tags or fusion partners need not be part of it.

One assay has as its target T1, PLIN2-mCherry (mouse) (UniProt P43883).
T1 sequence: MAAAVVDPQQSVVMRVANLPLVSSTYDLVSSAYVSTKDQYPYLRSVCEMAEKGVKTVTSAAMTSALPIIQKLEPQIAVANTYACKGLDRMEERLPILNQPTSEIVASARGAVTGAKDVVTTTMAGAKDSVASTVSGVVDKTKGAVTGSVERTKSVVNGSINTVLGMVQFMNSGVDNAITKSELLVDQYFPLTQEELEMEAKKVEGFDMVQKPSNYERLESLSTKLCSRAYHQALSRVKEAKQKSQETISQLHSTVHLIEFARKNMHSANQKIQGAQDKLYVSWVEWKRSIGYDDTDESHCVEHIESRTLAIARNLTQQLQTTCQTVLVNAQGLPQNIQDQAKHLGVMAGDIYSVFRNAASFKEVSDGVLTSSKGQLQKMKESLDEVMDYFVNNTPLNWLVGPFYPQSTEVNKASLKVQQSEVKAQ
Kind of assay: FRET or BRET; FRET-FLIM in live HepG2 cells co-transfected with donor (mEGFP/EGFP fusion) and acceptor (mCherry fusion), lipid loaded overnight with 0.8 mM oleate:palmitate (2:1); donor fluorescence lifetime with and without acceptor. Background: BRET reads energy transfer from a luciferase to a nearby fluorophore.

The target in another assay is T2, PLIN3-mCherry (mouse) (UniProt Q9DBG5).
T2 sequence: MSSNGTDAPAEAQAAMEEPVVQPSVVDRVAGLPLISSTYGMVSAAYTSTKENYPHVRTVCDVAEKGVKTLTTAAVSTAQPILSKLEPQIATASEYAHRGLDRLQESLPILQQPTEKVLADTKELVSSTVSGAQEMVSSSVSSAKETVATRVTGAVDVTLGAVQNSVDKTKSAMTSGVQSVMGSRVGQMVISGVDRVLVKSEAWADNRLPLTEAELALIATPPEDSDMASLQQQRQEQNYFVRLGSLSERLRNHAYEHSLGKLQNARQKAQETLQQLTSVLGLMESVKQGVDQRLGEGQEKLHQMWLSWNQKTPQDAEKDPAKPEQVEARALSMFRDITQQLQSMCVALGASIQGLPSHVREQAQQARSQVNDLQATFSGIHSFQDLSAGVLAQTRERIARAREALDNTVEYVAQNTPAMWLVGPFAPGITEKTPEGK
The assay is described as above.

In assay [1] the target is T3, DGAT2-mCherry (diacylglycerol acyltransferase 2 fused to mCherry) (mouse) (UniProt Q9DCV3).
T3 sequence: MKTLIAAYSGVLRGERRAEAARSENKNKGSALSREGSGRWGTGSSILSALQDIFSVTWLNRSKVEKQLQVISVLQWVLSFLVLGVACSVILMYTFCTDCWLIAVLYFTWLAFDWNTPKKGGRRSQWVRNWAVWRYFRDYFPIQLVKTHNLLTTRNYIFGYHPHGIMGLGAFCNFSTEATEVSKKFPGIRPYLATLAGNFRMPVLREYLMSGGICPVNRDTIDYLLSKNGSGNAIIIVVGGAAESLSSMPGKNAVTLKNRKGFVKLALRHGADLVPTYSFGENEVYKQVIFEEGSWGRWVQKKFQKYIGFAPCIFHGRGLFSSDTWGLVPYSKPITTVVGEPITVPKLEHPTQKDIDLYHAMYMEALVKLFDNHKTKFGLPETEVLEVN
The assay is described as above.

The target of assay [2] is T4, DGAT1-mCherry (diacylglycerol acyltransferase 1 fused to mCherry) (mouse) (UniProt Q9Z2A7).
T4 sequence: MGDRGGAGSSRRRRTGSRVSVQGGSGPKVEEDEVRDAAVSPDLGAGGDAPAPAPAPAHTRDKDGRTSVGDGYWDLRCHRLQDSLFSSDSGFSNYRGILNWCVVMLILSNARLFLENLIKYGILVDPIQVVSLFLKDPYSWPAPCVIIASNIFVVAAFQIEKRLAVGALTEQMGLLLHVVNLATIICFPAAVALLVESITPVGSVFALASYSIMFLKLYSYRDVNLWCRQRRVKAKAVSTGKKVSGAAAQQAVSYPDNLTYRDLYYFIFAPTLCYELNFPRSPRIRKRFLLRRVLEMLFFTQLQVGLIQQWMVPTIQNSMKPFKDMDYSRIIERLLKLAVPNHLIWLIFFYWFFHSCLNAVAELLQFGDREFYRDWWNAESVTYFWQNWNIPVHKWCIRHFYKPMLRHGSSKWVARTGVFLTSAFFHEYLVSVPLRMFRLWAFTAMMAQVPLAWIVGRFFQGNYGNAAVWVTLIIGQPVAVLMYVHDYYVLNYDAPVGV
Described as above.

Assay [3] addresses T3, DGAT2-mCherry (diacylglycerol acyltransferase 2 fused to mCherry) (mouse). Briefly: FRET or BRET; FRET-FLIM repeated in fixed HepG2 cells co-expressing donor HILPDA-mEGFP and mCherry acceptor; donor fluorescence lifetime.
Assay [4] addresses T4, DGAT1-mCherry (diacylglycerol acyltransferase 1 fused to mCherry) (mouse). Described as above.
The next assay deals with T5, GPAT4-EGFP (mouse) (UniProt Q8K2C8).
T5 sequence: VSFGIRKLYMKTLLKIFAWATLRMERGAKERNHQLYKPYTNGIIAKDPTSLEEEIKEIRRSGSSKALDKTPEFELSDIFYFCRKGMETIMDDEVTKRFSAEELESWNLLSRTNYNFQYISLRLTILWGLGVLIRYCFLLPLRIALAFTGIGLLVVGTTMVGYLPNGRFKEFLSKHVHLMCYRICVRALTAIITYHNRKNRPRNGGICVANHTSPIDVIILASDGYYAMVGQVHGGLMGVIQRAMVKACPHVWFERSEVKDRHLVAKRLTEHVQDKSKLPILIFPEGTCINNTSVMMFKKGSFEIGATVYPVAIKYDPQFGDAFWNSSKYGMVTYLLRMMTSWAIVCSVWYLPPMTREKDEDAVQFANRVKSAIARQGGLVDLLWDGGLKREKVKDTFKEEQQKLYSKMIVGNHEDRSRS
Kind of assay: FRET or BRET; FRET-FLIM in live HepG2 cells co-transfected with donor (mEGFP/EGFP fusion) and acceptor (mCherry fusion), lipid loaded overnight with 0.8 mM oleate:palmitate (2:1); donor fluorescence lifetime with and without acceptor.

For another assay, the target named is T6, GPAT1-EGFP (mouse) (UniProt Q61586).
T6 sequence: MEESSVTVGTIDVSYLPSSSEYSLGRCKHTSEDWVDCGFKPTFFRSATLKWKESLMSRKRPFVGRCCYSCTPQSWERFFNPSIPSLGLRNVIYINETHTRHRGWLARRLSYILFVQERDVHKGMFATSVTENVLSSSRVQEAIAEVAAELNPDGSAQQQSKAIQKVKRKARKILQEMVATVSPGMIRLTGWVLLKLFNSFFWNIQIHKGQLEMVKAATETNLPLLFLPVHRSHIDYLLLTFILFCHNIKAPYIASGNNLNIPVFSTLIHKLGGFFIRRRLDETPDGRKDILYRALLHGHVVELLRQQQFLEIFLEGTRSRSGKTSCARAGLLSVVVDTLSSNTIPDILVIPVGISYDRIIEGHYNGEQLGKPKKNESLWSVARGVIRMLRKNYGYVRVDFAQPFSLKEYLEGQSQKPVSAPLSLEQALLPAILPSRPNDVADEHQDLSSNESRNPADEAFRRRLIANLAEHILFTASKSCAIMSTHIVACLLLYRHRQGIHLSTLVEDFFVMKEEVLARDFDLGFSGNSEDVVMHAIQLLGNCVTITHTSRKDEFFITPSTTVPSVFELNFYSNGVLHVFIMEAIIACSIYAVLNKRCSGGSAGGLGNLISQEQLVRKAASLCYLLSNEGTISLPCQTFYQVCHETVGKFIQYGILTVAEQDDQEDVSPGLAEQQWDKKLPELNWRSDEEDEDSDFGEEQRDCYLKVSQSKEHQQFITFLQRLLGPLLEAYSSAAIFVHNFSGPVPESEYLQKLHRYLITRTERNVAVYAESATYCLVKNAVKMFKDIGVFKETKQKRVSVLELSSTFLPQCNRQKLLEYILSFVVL
The description is as above.

B1: HILPDA-mEGFP (hypoxia-inducible lipid droplet-associated fused to mEGFP) (protein, UniProt Q9JLS0 1-64)
chain: MKFMLNLYVLGIMLTLLSIFVRVMESLGGLLESPLPGSSWITRGQLANTQPPKGLPDHPSRGVQ
For the molecule B1, the binding result with PLIN2-mCherry (mouse) is “no binding”; in the assay with PLIN3-mCherry (mouse), “no binding”; in assay [1], “binds”; in assay [2], “binds”; in assay [3], “binds”; in assay [4], “binds”.

B2: HILPDA-mCherry (protein, UniProt Q9JLS0 1-64)
chain: MKFMLNLYVLGIMLTLLSIFVRVMESLGGLLESPLPGSSWITRGQLANTQPPKGLPDHPSRGVQ
For B2, the binding entry with GPAT4-EGFP (mouse) and in the assay with GPAT1-EGFP (mouse) was “no binding” throughout.
